Test results published in PubChem BioAssay (NCI).
Where “and” joins values, the source holds several entries; their conditions need not be identical. Equal values may be shown once.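 These data come from cells grown in 96-well plates and exposed to compound for 48 hours at five concentrations. GI50 marks 50% less growth. TGI marks complete inhibition of growth.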

Tested on: NCI-H322M lung
Test: inhibition of tumour cell growth, NCI panel, 48 h

Row | Compound | TGI | GI50 [µM]
1 | CC(=O)NC1=NC(=O)/C(=C/c2ccc(Cl)cc2Cl)N1C | > 100 µM | –
2 | c1ccc(C[P+]2(c3ccccc3)CCCCC2)cc1 | > 100 µM | –
3 | CC(CCC(=O)O)(c1cc(Br)c(O)c(Br)c1)c1cc(Br)c(O)c(Br)c1 | > 100 µM | –
4 | Cn1c(=O)c(C2c3ccccc3Oc3c2c(=O)n(C)c2ccccc32)c(O)c2ccccc21 (stereo not given) | > 100 µM | –
5 | O=C1CCCc2ccc3c(c21)CC1(Cc2cc4c(cc2C1)CCCC4)C3 | > 100 µM | –
6 | N=C(N)c1ccc(-c2ccc(-c3ccco3)o2)cc1 | 12.3 µM | 3.58
7 | COc1cc2c3c(c1OC)C1(C=CC(=O)C=C1)CC3N(C(=O)OC(C)(C)C(Cl)(Cl)Cl)CC2 (stereo not given) | 37.4 µM | –
8 | CCOC(=O)C(C(N)=O)c1nc2cc([N+](=O)[O-])ccc2nc1/C=C(\O)c1ccc(C)cc1 (stereo not given) | > 100 µM | –
9 | CCOc1cccc2cccnc12 | > 100 µM | –
10 | O=C(NCCc1ccccc1)C(c1csc2ccccc12)N(C(=O)CCl)c1ccc(-c2cnco2)cc1 (stereo not given) | 3.04 µM | 1.63
11 | O=C(O)CC(Cc1ccccc1)C(=O)O (stereo not given) | > 100 µM | –
12 | O=C1C=Cc2cc3ccccc3c3cccc1c23 | 70 µM | 18
13 | N#CC1=C(N)Oc2c(sc3c(F)cccc23)C1c1ccc(Cl)cc1 (stereo not given) | 23.2 µM | 4.22
14 | CSCC[C@@H](NC(=O)[C@H](CC(C)C)NC(=O)C(Cc1cnc[nH]1)NC(=O)CNC(=O)[C@@H](NC(=O)[C@H](C)NC(=O)[C@H](Cc1cn(C=O)c2ccccc12)NC(=O)[C@H](CCC(N)=O)NC(=O)[C@@H](N)CC(N)=O)C(C)C)C(N)=O (stereo not given in full) | > 100 µM | –
15 | O=c1[nH]/c(=C/c2cccs2)c(=O)[nH]/c1=C/c1ccc(OCc2ccccc2)cn1 | > 100 µM | –
16 | O=C1OS2(OC(=O)c3cccc4cccc2c34)c2ccccc21 (stereo not given) | > 100 µM | –
17 | Cc1cc(S(=O)(=O)Nc2nc(N)n(-c3ccccc3)n2)c(S)cc1Cl | > 100 µM | –
18 | CC([C@H]1CCC2C3CCC4C(=O)C(NC=O)=CC[C@]4(C)C3CC[C@@]21C)N(C)C (stereo not given in full) | 14.3 µM | 3.52
19 | Nc1nc(-c2ccccc2)cc(-c2ccc(F)cc2)c1-c1ccc(Cl)cc1 | > 100 µM | –
20 | Cc1ccc(NC(=O)C(=O)C2C(=O)C3=C(CC2(C)C)NC2C=CC=CC2S3)c(C)c1 (stereo not given) | > 100 µM | –
21 | COC(=O)C(=O)C(C(=O)C(=O)Nc1ccc(Cl)cc1Cl)c1nc2ccc(Cl)cc2[nH]c1=O (stereo not given) | > 100 µM | –
22 | COc1cc(Oc2cnc3cc(N)cc(N)c3n2)cc(OC)c1OC | > 100 µM | > 100
23 | O=C(O)CSc1ccn(Cc2ccccc2)c1 | > 100 µM | –
24 | CC12CCC3=C(CSC4=C3CSc3ccccc34)C1=CCCC2=O (stereo not given) | > 100 µM | –

Row | Compound | TGI | GI50 [µM]
25 | CC1=NN(C(=O)CC(=O)Nc2ccccc2)C(=O)C1N=Nc1ccc(S(N)(=O)=O)cc1 (stereo not given) | > 100 µM | –
26 | O=C(c1ccc(Cl)cc1)N(C(=S)N1CCN(c2ccccc2)CC1)C1CCCCC1 | > 100 µM | –
27 | C/C(=N\NC(=S)N/N=C(\C)c1ccccn1)c1ccccn1 | > 100 µM | –
28 | Cc1cc(C)c2nc(Nc3nc(C)c(C)c(=O)[nH]3)nc(C)c2c1 | 9.14 µM | 2.44
29 | O=C(NCCc1ccc(F)cc1)c1cc(/C=C/c2cc(O)ccc2O)ccc1O | 26.9 µM | –
30 | COC(=O)C1=C(O)C(C(=O)OC)[C@@]2(O)[C@@H](C(=O)OC)C(c3ccc(OC(=O)C(Cc4ccccc4)NC(C)=O)cc3)C[C@@H]1[C@@H]2C(=O)OC (stereo not given in full) | 35.1 µM | 14
31 | Cc1cc([C@H](C#N)c2nc3ccccc3s2)nc(Cl)n1 | > 100 µM | –
32 | O=C(/C=C(\O)C(=O)O)/C=C(\O)c1ccc(Cl)cc1 | > 100 µM | –
33 | NC(N)=Nc1nc2cc(N)ccc2o1 | > 100 µM | –
34 | C[N+](C)(C)CC(=O)NC(=O)N/N=C\C(CC#N)CN(Cc1ccccc1)Cc1ccccc1 (stereo not given) | > 100 µM | –
35 | COC(=O)c1ccc2c(c1)CC1(C2)Cc2ccc3c(c2C1)CCC3 (stereo not given) | > 100 µM | –
36 | COc1ccc(C2CC(c3cccc(Nc4ccnc5cc(Cl)ccc45)c3)=NN2c2ccccc2)cc1 (stereo not given) | 94.1 µM | 6.39
37 | S=c1sc2ccccc2n1CN1CCN(Cc2ccccc2)CC1 | > 100 µM | –
38 | CN(C)c1ccc(C(=C2C=CC(=[N+](C)C)C=C2)c2c(O)c(S(=O)(=O)[O-])cc3cc(S(=O)(=O)O)ccc23)cc1 | > 100 µM | –
39 | CSc1nc(NC2CC2)c2c(n1)Sc1nc3ccccc3n1N=C2 | 34.2 µM | –
40 | COc1cc(C=C2C(=O)OC(C)(C)OC2=O)cc(OC)c1OC | > 100 µM | –
41 | COC12OC3(C4OC41)C(C(=O)O[C@H]3CO[Si](C)(C)C(C)(C)C)C2S(=O)(=O)c1ccccc1 (stereo not given in full) | > 8.59 µM | –
42 | NS(=O)(=O)OC[C@H]1O[C@@H](n2cnc3c(N[C@H]4CCc5ccccc54)ncnc32)[C@H](O)[C@@H]1O | 0.549 µM | 0.149
43 | NC(=O)c1ncn(C2CCC(CP(=O)(O)O)C2)c1N (stereo not given) | > 100 µM | –
44 | C=CCn1c(-c2ccc(N=NNc3ccc(-c4n[nH]c(=S)n4CC=C)cc3)cc2)n[nH]c1=S | > 100 µM | –
45 | CCSc1sc(-c2ccc(C)cc2)nc1[P+](c1ccccc1)(c1ccccc1)c1ccccc1 | 1.29 µM | 0.339
46 | O=C1/C(=C/c2ccc(F)cc2)CN(Cc2cn(CCNc3ccnc4cc(Cl)ccc34)nn2)C/C1=C\c1ccc(F)cc1 | 3.02 µM | 1.54
47 | COc1cc2c(cc1OC)[C@@H]1[C@H](C2=O)c2ccc([N+](=O)[O-])cc2C(=O)N1CCCBr | 1.34 µM | < 0.0187
48 | O=C1/C=C(/c2ccc(O)cc2)[C@H](O)Cc2ccc(OC3OC(CO)C(O)C(O)C3O)cc2O1 (stereo not given in full) (tested in a mixture with another compound) | > 100 µM | –

Row | Compound | TGI | GI50 [µM]
49 | CCCCC(=O)Nc1ccc2cc(C(=O)OC)c(=O)[nH]c2n1 | > 100 µM | –
50 | CO/C=C(/C(=O)OC)c1ccccc1[C@H]1C[C@@H]1c1ccc(OC)cc1 | > 100 µM | –
51 | O=C(/C=C/c1ccco1)c1ccc(Nc2ccnc3cc(Cl)ccc23)cc1 | > 100 µM | 10.9
52 | CC(=O)OC1CC[C@@]2(C)C(CC(OC3OC(CO)C(O)C(O)C3O)[C@]3(C)C2CCC24CC23CC[C@H]4C(C)CC(O)[C@@H](O)C(C)(C)O)C1(C)C (stereo not given in full) | 41.9 µM | –
53 | COc1ccc(NC(=O)c2cc(NC(=O)/C=C/c3ccccc3)c(OC)c(OC)c2)cc1 | > 100 µM | –
54 | COC(=O)c1ccc2n[se]nc2c1 | > 100 µM | –
55 | COC(=O)C1=C(SC)SC2(C(=O)OC)C3C=C(C)C4C(N13)C42C(=O)OC (stereo not given) | > 100 µM | –
56 | CCCCc1ccc(Nc2nc(N)c3[nH]cnc3n2)cc1 | 39.6 µM | –
57 | CC(C)n1c2c(c3ccccc3c1=O)C(=O)c1ccccc1-2 | > 100 µM | –
58 | NC1=CN2c3ccccc3N(CC(=O)N3CCOCC3)C2C=C1 (stereo not given) | > 100 µM | –
59 | CC(=O)c1c[nH]c2ccc(-c3ccnc(Nc4ccc(NC(=O)c5cccc(F)c5)c(CN5CCOCC5)c4)n3)cc12 | – | 0.184
60 | COc1ccc(/C=C/C=C2C(=O)NC(=S)NC2=O)cc1 | 47 µM | –
61 | CCOC(=O)n1c2ccccc2c2c(O)c(OC)c3c(c21)C(=O)NC3=O | > 100 µM | –
62 | COc1cc2[nH]c(=O)[nH]c2c2c(C)c[nH]c12 | > 100 µM | –
63 | O=C(OCc1ccccc1[N+](=O)[O-])N1c2ccccc2[C@@]23O[C@]24CCC[C@H]3C#C/C=C\C#C[C@H]14 | > 100 µM | –
64 | NNC(=S)N/N=C(\c1nc2ccc(Cl)cc2[nH]c1=O)C(O)c1ccc(Cl)cc1Cl (stereo not given) | > 100 µM | –
65 | NC(=O)NC1=NCCC(=O)N1CCc1c[nH]c2ccccc12 | 57.7 µM | –
66 | COC(CO[Si](C)(C)N[Si](C)(C)OCC(OC)c1ccccc1)c1ccccc1 (stereo not given) | > 100 µM | –
67 | CC1CN=C(c2ccc3c(c2)Cc2cc(C4=NCC(C)N4)ccc2-3)N1 (stereo not given) | 69.5 µM | –
68 | O=C1NC(N2CCOCC2)=N/C1=C\c1ccccc1 | > 100 µM | –
69 | O=C1N2CCN=C2c2ccccc2C1(O)c1ccccc1 (stereo not given) | > 100 µM | –
70 | CN1CCN(c2nc(NCCNc3ccnc4cc(Cl)ccc34)c3ccccc3n2)CC1 | 11.6 µM | 2.97
71 | CC(=O)Nc1ccc(S(=O)(=O)/N=c2/sc(S(N)(=O)=O)nn2C)cc1 | > 100 µM | –
72 | Nc1ccc(Cl)cc1.Nc1ccc(Cl)cc1.Nc1ccc(Cl)cc1.O=C([O-])C(=O)[O-].O=C([O-])C(=O)[O-].[H+].[Ru+5] | > 100 µM | > 100

Row | Compound | TGI | GI50 [µM]
73 | COc1ccc(NC(=O)CC(=O)n2nc(-c3ccccc3)c(N=Nc3ccc(C)cc3)c2-c2ccccc2)cc1 | > 96.1 µM | –
74 | Nc1c2c(nc3ccccc13)-c1ccccc1CCC2 | 42.2 µM | –
75 | COC(=O)c1ccc2c(c1)[n+](=O)c(C(C)=O)c(C(F)(F)F)n2[O-] | 13.7 µM | 4.28
76 | NC(=O)c1ccc(N)nc1 | > 400 µM | –
77 | COc1cccc(-n2cnc3c(N/N=C/c4ccncc4)ncnc32)c1 | > 25 µM | 9.19
78 | CC(C)=CCNc1ncnc2c1ncn2C1OC(COP(=O)(O)O)C(O)C1O (stereo not given) | > 100 µM | 6.95
79 | C/C(=C/CC[C@](C)(OC1OC(CO)C(O)C(O)C1OC1OC(C)C(O)C(O)C1O)[C@H]1CC[C@]2(C)[C@@H]1CC[C@@H]1[C@@]3(C)CC[C@H](O)C(C)(C)[C@@H]3C[C@H](O)[C@]12C)CO (stereo not given in full) | > 100 µM | –
80 | O=c1[nH]nc(Nc2ccccc2)c2nnn(Cc3ccccc3)c12 | > 100 µM | –
81 | O=C1CCc2cc([N+](=O)[O-])ccc2O1 | > 100 µM | –
82 | O=C(CC1Sc2ccccc2NC1=O)Nc1ccc([N+](=O)[O-])cc1[N+](=O)[O-] (stereo not given) | > 100 µM | –
83 | COc1cc(/C=C/C(=O)OC[C@]23O[C@H]2[C@@H](OC2OC(C)C(O)C(O)C2O)C2C=CO[C@@H](OC4OC(CO)C(O)C(O)C4O)C23)ccc1O (stereo not given in full) | > 100 µM | –
84 | COC(=O)c1ccc2c(c1)CCN2C(=O)c1cc2c(cc1Br)OCO2 | 50 µM | –
85 | NCCCCN(CCCN)C(=O)OCc1ccccc1 | > 100 µM | –
86 | Cc1ccc(N=c2oc3c(ccc4ccccc43)nc2Nc2ccc(C)cc2)cc1 | > 100 µM | –
87 | Cc1cc(CC(O)(C(F)(F)F)C(F)(F)F)cc(CC(O)(C(F)(F)F)C(F)(F)F)n1 | 16.4 µM | –
88 | COC(=O)CC[C@@H](NC(=O)C(C)NC(=O)COC1C(O)C(COC(=O)CCCCCCCCCCNC(=O)c2ccc([N+](=O)[O-])c3[nH]c4cc(Br)ccc4c(=O)c23)OC(OCc2ccccc2)C1NC(C)=O)C(N)=O (stereo not given in full) | > 100 µM | –
89 | Nc1ncnc2c1ncn2C1OC(CO)C(O)C1O (stereo not given) | > 100 µM and > 450 µM and 65.8 µM | –
90 | CC1(C)OC2C(CO)OC(/N=C(\NC#N)Oc3ccccc3)C2O1 (stereo not given) | > 100 µM | –
91 | O=C(O)C(C1NCCS1)N1Cc2ccccc2C1 (stereo not given) | > 100 µM | –
92 | CCCCOP(=O)(OCCCC)C(NS(=O)(=O)c1ccccc1)(C(=O)OCC)C(F)(F)F (stereo not given) | > 100 µM | –
93 | c1ccc2c3c(c(N4CCNCC4)nc2c1)CCCC3 | 30.9 µM | –
94 | Cc1c(Br)cccc1NC(=O)c1sc2nc3c(cc2c1N)CN(Cc1ccccc1)CC3 | > 50 µM | 0.254
95 | CCC(C)CNC1=C(NC(C)=O)C(=O)c2ccccc2C1=O (stereo not given) | > 100 µM | –
